Data taken from article PMC4336329 (PLoS ONE, 2015).
The whole screen tested about 310,000 compounds, of which about 14,000 (4.5%) showed an effect of 50% or more. Effects have a minus sign here. Some of the results follow.

Target: human ether-à-go-go-related gene (hERG) potassium channel (human, UniProt Q12809)
Assay: primary screen, population patch clamp on CHO cells stably expressing hERG
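Note: peak tail current of the secondary pulse compared with the same well before compound.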

Chain of human ether-à-go-go-related gene (hERG) potassium channel (Q12809 whole entry, looked up): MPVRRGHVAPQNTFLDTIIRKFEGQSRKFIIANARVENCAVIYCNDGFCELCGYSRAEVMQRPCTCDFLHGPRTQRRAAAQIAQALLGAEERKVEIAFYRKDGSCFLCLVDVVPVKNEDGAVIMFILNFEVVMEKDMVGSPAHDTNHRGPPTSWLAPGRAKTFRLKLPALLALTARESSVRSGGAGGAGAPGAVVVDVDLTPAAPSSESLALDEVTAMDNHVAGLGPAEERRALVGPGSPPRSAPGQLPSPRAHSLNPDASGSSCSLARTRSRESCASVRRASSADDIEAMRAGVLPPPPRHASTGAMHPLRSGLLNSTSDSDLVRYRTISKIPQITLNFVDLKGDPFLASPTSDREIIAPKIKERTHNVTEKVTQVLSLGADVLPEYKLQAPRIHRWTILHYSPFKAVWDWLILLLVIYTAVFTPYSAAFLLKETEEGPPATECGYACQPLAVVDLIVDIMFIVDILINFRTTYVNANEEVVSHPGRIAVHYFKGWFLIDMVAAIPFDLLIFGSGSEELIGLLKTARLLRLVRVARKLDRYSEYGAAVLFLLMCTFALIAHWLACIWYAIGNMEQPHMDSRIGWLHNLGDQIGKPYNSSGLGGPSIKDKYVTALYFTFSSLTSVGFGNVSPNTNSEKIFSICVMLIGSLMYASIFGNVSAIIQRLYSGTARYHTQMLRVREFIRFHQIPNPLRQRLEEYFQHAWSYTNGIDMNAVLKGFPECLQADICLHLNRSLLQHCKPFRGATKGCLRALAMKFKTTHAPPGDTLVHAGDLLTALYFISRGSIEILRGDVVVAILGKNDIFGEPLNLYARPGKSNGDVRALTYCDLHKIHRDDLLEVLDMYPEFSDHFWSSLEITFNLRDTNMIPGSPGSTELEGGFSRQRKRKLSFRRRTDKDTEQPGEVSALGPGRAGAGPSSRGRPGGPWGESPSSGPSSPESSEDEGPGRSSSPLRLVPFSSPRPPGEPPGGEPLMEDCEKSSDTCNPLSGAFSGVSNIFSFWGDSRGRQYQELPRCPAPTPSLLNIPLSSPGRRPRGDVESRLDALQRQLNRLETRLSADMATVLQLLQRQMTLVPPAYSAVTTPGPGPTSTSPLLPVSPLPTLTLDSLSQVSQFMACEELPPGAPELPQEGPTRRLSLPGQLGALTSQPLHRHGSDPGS

Structure (SMILES) | hERG current change (%, negative = inhibition) at 10uM [%]
Cc1nn(-c2ccccc2)c(C)c1/C=N/NC(=O)c1ccccc1O | -2.48
CCOc1ccc(CN(C)C(=O)c2ccc(NC(=O)CC3SC(N4CCCC4)=NC3=O)cc2)cc1 (stereo not shown) | 7.53
O=C(c1nc2ncccn2n1)N1CCN(c2ccccc2)CC1 | -2.09
O=C1c2ccccc2C(=O)C1c1ccnc2ccccc12 | 4.14
CNC(=O)/C(C#N)=C/c1cccc(Oc2ccccc2)c1 | -18.6
COC(CNC(=O)c1ccc2c(=O)n(Cc3ccc(Cl)cc3)c(=S)[nH]c2c1)OC | 15.5
O=C(Cc1ccccc1[N+](=O)[O-])NCCc1ccc(F)cc1 | 0.102
Cc1cc(C(=O)CSc2cccc[n+]2[O-])c(C)n1-c1ccccc1 | 13.9
O=C1CSC(=Nc2ccc(Cl)cc2)N1 | 9.39
COc1ccc(NC(=O)c2ccccc2C)cc1 | 14.9
CN(C)C=O.COc1ccccc1NC(=O)C1=C(C)NC(=O)NC1c1ccccc1[N+](=O)[O-] (stereo not shown) | 7.42
N#CCC(=O)NCC1(c2ccccc2)CCCC1 | 5.21
O=S(=O)(N/N=C/c1ccccc1OCc1ccc(Cl)cc1)c1ccccc1 | -4.84
CCOC(=O)N1CCN(Cc2c(NC(=O)c3ccco3)sc(C)c2C)CC1 | 11.6
C=C(C)COc1ccc(-c2[nH]ncc2Oc2ccccc2OCC)c(O)c1 | 4.65
O=Cc1ccc(-c2cc(Cl)ccc2Cl)[nH]1 | 5.9
Cc1cc(C(=O)NCCC(C)C)c2ccccc2n1 | 10.3
COc1ccc(-c2nnc(SCc3ccccn3)n2C)cc1 | -9.22
O=C(NC1CCN(Cc2ccccc2)CC1)c1cncc(Br)c1 | -64.1
Cc1nn(-c2ccccc2)c2nc(-c3ccccc3)cc(C(=O)N3CCOCC3)c12 | -25.9
COc1ccc(C(CNC(=O)c2cccc(Br)c2)N2CCCC2)cc1 (stereo not shown) | -31.6
O=C(CCNC(=O)C1CCN(S(=O)(=O)c2ccccc2)CC1)NCc1ccc(Cl)cc1 | 8.88
CSc1nc(-c2ccccc2)c(-c2ccccc2)[nH]1 | -2.5
COc1cc(C2CC(c3cccnc3)=NN2c2ccc(F)cc2)cc(OC)c1OC (stereo not shown) | -18.7
Cc1ccc(-c2[nH]n3c(=O)c4c(nc3c2C)CCCC4)cc1 | -14.7
